Measurements from PubChem BioAssay AID504832 (National Center for Advancing Translational Sciences (NCATS), 2011).
Screen size: about 310,000 compounds; about 18,000 (5.8%) were called active. The inconclusive results got no clear call from the source; some entries with a clear call stand among them for comparison. Calls follow the shape of the dose curve; as a rule, active = well fitted inhibition curve with a large enough effect; inconclusive = small, poorly fitted or top-dose-only effect, or another doubt; inactive = no such curve, though single readings can be large or run the other way. No potency is given beside an inconclusive call; the fits are too rough.

assay: Primary qHTS for delayed death inhibitors of the malarial parasite plastid, 48 hour incubation; conditions: P. falciparum luciferase growth in erythrocytes; series mostly up to 28.7 µM
In short: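 Parasite viability was followed by luminescence of a genomically integrated firefly luciferase. Cultures held 0.1% parasitemia at 2% hematocrit (final), incubated under 5% CO2 at 37 C.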
Potency is read from the fitted curve at half-maximal effect; tags tell the direction and shape of the fitted curve.

SMILES	Potency
CCn1c(SCC(=O)Nc2ccccc2)nc2nc3c(cc2c1=O)COC(C)(C)C3	inconclusive [inhibitor, single point]
COc1ccc(-c2cnc(SCC(=O)Nc3cc(C)on3)n2Cc2ccco2)cc1	inconclusive [inhibitor, single point]
COCCn1c(=O)[nH]c2cc(C(=O)Nc3nnc(C)s3)ccc21	inactive
CCCCOc1ncnc2c1[nH]c1ccccc12	inconclusive [inhibitor, full curve, poor fit]
CC(C)(C)OC(=O)N1CCC(C(=O)N[C@H](C(=O)O)c2ccccc2)(c2ccccc2)CC1	inconclusive [inhibitor, partial curve]
CC1CCCN(CCCNC(=O)C2CC(=O)N(CCc3ccccc3)C2)C1 (centres undefined)	inactive
COc1ccc(-c2[nH]ncc2-c2ccc3c(c2)OCCO3)c(O)c1	inconclusive [inhibitor, single point]
CCn1ncc(Br)c1C(=O)Nc1ccc(C(=O)OC(C)C)cc1	inconclusive [inhibitor, single point]
COc1ccc(/C=C2\SC(=NCc3ccccc3)NC2=O)cc1	inconclusive [inhibitor, partial curve]
Cc1c(C(=O)NC(C)c2ccncc2)oc2ccccc12 (centres undefined)	inconclusive [inhibitor, partial curve, poor fit]
Cc1cccc(/C=N/c2sc3c(c2C(=O)OC(C)(C)C)CCN(C)C3)c1O	inconclusive [inhibitor, partial curve, poor fit]
CS(=O)(=O)N(CC(=O)N1CCCCC1)c1ccc(Cl)c(C(F)(F)F)c1	inconclusive [inhibitor, partial curve, poor fit]
NC(=O)/C(=C\c1ccccc1)NC(=O)c1ccc(NC(=O)c2ccccc2)cc1	inactive
COC(=O)COC(=O)c1ccccc1NC(=O)c1ccccc1	inactive
CSc1cccc(N2CC(C(=O)N(Cc3nnc(-c4ccccc4Cl)o3)C3CC3)CC2=O)c1 (centres undefined)	inconclusive [inhibitor, partial curve, poor fit]
CC(NC(=O)c1cc(-c2ccncc2)nc2ccc(Cl)cc12)C1CCCO1 (centres undefined)	inconclusive [inhibitor, single point]
CCN(CC)C(=O)Oc1nnc(SC(C)C)n1-c1ccc(Cl)c(Cl)c1	inconclusive [inhibitor, partial curve]
O=C(CSc1nnc(CNC(=O)C23CC4CC(CC(C4)C2)C3)n1-c1ccccc1)Nc1ccc(F)cc1	inconclusive [inhibitor, partial curve]
N#C/C(=C\c1cc(Cl)cc(Cl)c1O)C(=O)NC1CCCCC1	inconclusive [inhibitor, single point]
Cc1cnc(C(=O)Nc2ccc(S(=O)(=O)N(C(C)C)C(C)C)cc2)cn1	inactive
COc1ccc(NC(=O)CSc2nnc(Cc3cccn3C)n2-c2ccc(F)cc2)cc1	inconclusive [inhibitor, single point]
Nc1nc(NCCCN2CCOCC2)nc(Nc2ccc(Cl)cc2)c1[N+](=O)[O-]	inconclusive [inhibitor, partial curve]

SMILES	Potency
COc1cccc(NC(=O)CSc2nc3ccccc3c(=O)n2Cc2cccs2)c1	inconclusive [inhibitor, single point]
O=c1[nH]c2ccccc2nc1C(Nc1ccccc1)c1ccccc1 (centres undefined)	inconclusive [inhibitor, single point]
CN1C(=O)[C@H]2[C@@H](C3CC3)N3C(=O)CN(CCO)C(=O)[C@@]3(Cc3ccccc3)[C@H]2C1=O	inactive
O=C(N/N=C\c1ccccn1)C1c2ccccc2Oc2ccccc21	inconclusive [inhibitor, single point]
CCCc1[nH]nc2c1C1(CCN(C(=O)OCc3ccccc3)CC1)C(C#N)=C(N)O2	inconclusive [inhibitor, partial curve, poor fit]
COc1ccc(S(=O)(=O)N2CCC(C(=O)N3CCc4ccccc4C3)CC2)cc1	inconclusive [inhibitor, partial curve]
Cc1ccc(-c2csc3nnc(SCC(=O)NCc4ccco4)n23)cc1	active: 9.28 µM
COc1cc(Cl)c(S(=O)(=O)NCCCn2ccnc2)cc1Cl	inconclusive [inhibitor, full curve, poor fit]
Cc1cccc(NC(=O)CN2CCCN(S(=O)(=O)c3ccc(Br)s3)CC2)c1	inconclusive [inhibitor, partial curve, poor fit]
COc1ccc(OC)c2sc(N3CCCCC3)nc12	inactive
CC(C)(c1ccccc1)c1ccc(OCCN)cc1	inconclusive [inhibitor, single point]
Cc1ccc(N(CCC#N)C(=O)COC(=O)c2ccccn2)cc1	inactive
CCCc1cc2c(=O)c(-c3ccc4c(c3)OCCO4)c(C)oc2cc1OS(C)(=O)=O	inconclusive [inhibitor, single point]
COc1ccc(NC(=O)c2cccnc2Nc2ccc(OC)cc2)cc1	inactive
COc1ccccc1CN(Cc1cc2cc(C)ccc2[nH]c1=O)Cc1nnnn1CC1CCCO1 (centres undefined)	active: 7.38 µM
CCCc1cc(C(=O)N2CCCC(N3CCN(c4ccccc4C)CC3)C2)n(C)n1 (centres undefined)	inconclusive [inhibitor, partial curve, poor fit]
C#CCN1c2ccccc2Sc2cccnc21	active: 0.329 µM
Cc1ccccc1C(=O)NCCn1cc(SCC(=O)NCC2CCCO2)c2ccccc21 (centres undefined)	inconclusive [inhibitor, single point]
Clc1ccc(-c2csc(N/N=C/c3cccnc3)n2)c(Cl)c1	active: 10.4 µM
O=C1C=C(c2cccc(CO)c2)C[C@@H](c2ccc3c(c2)OCO3)C1	inconclusive [inhibitor, single point]
CCOC(=O)CC1C(=O)NCCN1c1nc2ccc(C)cn2c(=O)c1/C=C1\SC(=S)N(C(C)CC)C1=O (centres undefined)	inconclusive [inhibitor, full curve, poor fit]
COc1ccccc1CCNC(=O)Cn1ccc2cc(S(=O)(=O)N3CCCC3)ccc21	inconclusive [inhibitor, partial curve]

SMILES	Potency
Cc1nn(C)c(C)c1S(=O)(=O)N(CC(=O)NCCCN1CCC(C)CC1)c1ccc(C(C)C)cc1	inconclusive [inhibitor, single point]
Cc1noc2ncnc(Sc3ccc(Br)cc3)c12	inconclusive [inhibitor, partial curve, poor fit]
CCOc1ccc(NC(=NCc2ccc3c(c2)OCO3)SC2CC(=O)N(c3ccc(OCC)cc3)C2=O)cc1 (centres undefined)	inconclusive [inhibitor, single point]
COc1ccc(CCNC(=O)CCNS(=O)(=O)c2cc(Br)cnc2N)cc1OC	inconclusive [inhibitor, partial curve]
CC(C)C[C@H]1CN=C(Nc2ccccc2)N1CCC(C)c1ccccc1 (some centres undefined)	inconclusive [inhibitor, single point]
Fc1cccc(NC(=S)NCc2ccccc2Cl)c1	inconclusive [inhibitor, single point]
Cc1cccc(Nc2nc(N)c([N+](=O)[O-])c(N3CCCC(C)C3)n2)c1 (centres undefined)	active: 11.7 µM
COC(=O)c1ccc(CNC(=O)c2ccc(OC)c(S(=O)(=O)NC3CCCC3)c2)cc1	inconclusive [inhibitor, partial curve, poor fit]
COc1ccc(-c2nc(C#N)c(NCc3cccnc3)o2)cc1OC	inconclusive [inhibitor, partial curve, poor fit]
COc1cccc(C2C(C(=O)c3cc4cccc(OC)c4o3)=C(O)C(=O)N2c2cc(C)on2)c1OC (centres undefined)	inconclusive [inhibitor, single point]
Cc1ccc(Nc2nc(Cl)c(C=O)s2)cc1Cl	inactive
CCN(CC(=O)Nc1ccc(NC(C)=O)cc1)C(=O)/C=C/c1cn(-c2ccccc2)nc1-c1cccs1	inconclusive [inhibitor, partial curve]
CNC(=O)N(O)C1N(C)C(=O)N(CC(=O)OC)C1(C)C (centres undefined)	inactive
O=C(O)C(CO)(c1ccccc1)c1ccccc1	inactive
O=C(Nc1ccc2c(c1)OCCO2)c1cc2ccccc2o1	inactive
CCN(CC(=O)Nc1c(F)cccc1F)C(=O)CSC(=S)N1CCCC1	inconclusive [inhibitor, single point]
CC(C)(C)NC(=O)COC(=O)CCC(=O)c1ccc(F)cc1	inconclusive [inhibitor, single point]
CC(C)c1ccc(NC(=O)CN2C(=O)NC(Cc3c[nH]c4ccccc34)C2=O)cc1 (centres undefined)	inconclusive [inhibitor, single point]
COc1ccc([C@@H]2[C@@H]3C(=O)N(C(C)(C)C)C(=O)[C@@H]3[C@]3(Cc4ccccc4)C(=O)N(c4ccc(OC)cc4)C(=O)N23)cc1	inconclusive [inhibitor, single point]
Cc1nn(Cc2ccc(Cl)cc2)c(Cl)c1/C=N/NC(=O)CNc1ccccc1F	inconclusive [inhibitor, single point]
